A collection of fitness landscapes (doi:10.1016/j.celrep.2020.107928)
The full ranking holds about 81,000 sequences; the median of “one-hybrid fitness for binding parS DNA” is about -0.17, and the highest 2% start at about 0.51. Some of the results follow.

B1: Caulobacter ParB omega fusion; a variant is named by its letters at X, in order, B8GW30 (parent)
chain: MESVVVGEPGMSEGRRGLGRGLSALLGEVDAAPAQAPGEQLGGSREAPIEILQRNPDQPRRTFREEDLEDLSNSIREKGVLQPILVRPSPDTAGEYQIVAGERAWRAAQRAGLKTVPIMVRELDDLAVLEIGIIENVQRADLNVLEEALSYKVLMEKFERTQENIAQTIGKSXSHVANXMRLLXLPDEVQSYLVSGELTAXHARAIAAAADPVALAKQIIEGGLSVRETEALARKAPNLSAGKSKGGRPPRVKDTDTQALESDLSSVLGLDVSIDHRGSTGTLTITYATLEQLDDLCNRLTRGI

Variants of: B1
Assay: one-hybrid fitness for binding parS DNA (scaled: cognate 1, non-cognate 0); higher = stronger binding
Conditions: with parS DNA site
Method in brief: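 Fitness is the rescaled log change in variant-to-wild-type read ratio, measured by Illumina sequencing of plasmids before and after bacterial one-hybrid selection. The scale puts cognate at 1 and non-cognate at 0. Selection of Caulobacter ParB libraries, four specificity codons randomised, took place in E. coli USO with a HIS3 reporter, site 19 bp from the promoter, over 48 hours at 37°C on M9-minus-histidine with 0.1 mM IPTG and 5 mM 3-AT.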

VYAA and PHFT cannot be ordered by “one-hybrid fitness for binding parS DNA” value: at most 0.2 for the first, at most 0.2 for the second.

KTFY and HATT cannot be ordered by “one-hybrid fitness for binding parS DNA” value: at most 0.2 for the first, at most 0.2 for the second.

YWPT and RPWV cannot be ordered by “one-hybrid fitness for binding parS DNA” value: at most 0.2 for the first, at most 0.2 for the second.

DYAR and CSNE cannot be ordered by “one-hybrid fitness for binding parS DNA” value: at most 0.2 for the first, at most 0.2 for the second.

SAAH and SYKM cannot be ordered by “one-hybrid fitness for binding parS DNA” value: at most 0.2 for the first, at most 0.2 for the second.

TYRV and YGAR cannot be ordered by “one-hybrid fitness for binding parS DNA” value: at most 0.2 for the first, at most 0.2 for the second.

First: VCVM
Second: RGTC
The “one-hybrid fitness for binding parS DNA” value of the first is lower: at most 0.2 for the first, 0.695 for the second.

AVVV and YPQS cannot be ordered by “one-hybrid fitness for binding parS DNA” value: at most 0.2 for the first, at most 0.2 for the second.

HVPF and ASGI cannot be ordered by “one-hybrid fitness for binding parS DNA” value: at most 0.2 for the first, at most 0.2 for the second.

MAHC and IKLT cannot be ordered by “one-hybrid fitness for binding parS DNA” value: at most 0.2 for the first, at most 0.2 for the second.

LSWD and RWHE cannot be ordered by “one-hybrid fitness for binding parS DNA” value: at most 0.2 for the first, at most 0.2 for the second.

Going from TTPR to RAPA, the “one-hybrid fitness for binding parS DNA” value rises from at most 0.2 to 0.231.

GPAG and ELMV cannot be ordered by “one-hybrid fitness for binding parS DNA” value: at most 0.2 for the first, at most 0.2 for the second.

YWSS and MSRR cannot be ordered by “one-hybrid fitness for binding parS DNA” value: at most 0.2 for the first, at most 0.2 for the second.

FGVT and ATYS cannot be ordered by “one-hybrid fitness for binding parS DNA” value: at most 0.2 for the first, at most 0.2 for the second.

WARV and RYHV cannot be ordered by “one-hybrid fitness for binding parS DNA” value: at most 0.2 for the first, at most 0.2 for the second.

SHCH and PTSK cannot be ordered by “one-hybrid fitness for binding parS DNA” value: at most 0.2 for the first, at most 0.2 for the second.

SNKG and NVAL cannot be ordered by “one-hybrid fitness for binding parS DNA” value: at most 0.2 for the first, at most 0.2 for the second.

ATLH and NQVL cannot be ordered by “one-hybrid fitness for binding parS DNA” value: at most 0.2 for the first, at most 0.2 for the second.

RHTQ and QMSP cannot be ordered by “one-hybrid fitness for binding parS DNA” value: at most 0.2 for the first, at most 0.2 for the second.

YTAP and SRNL cannot be ordered by “one-hybrid fitness for binding parS DNA” value: at most 0.2 for the first, at most 0.2 for the second.

PKET and LHRT cannot be ordered by “one-hybrid fitness for binding parS DNA” value: at most 0.2 for the first, at most 0.2 for the second.

DPRG and ERNT cannot be ordered by “one-hybrid fitness for binding parS DNA” value: at most 0.2 for the first, at most 0.2 for the second.

HQPR and MRMR cannot be ordered by “one-hybrid fitness for binding parS DNA” value: at most 0.2 for the first, at most 0.2 for the second.

VHRC and ATTH cannot be ordered by “one-hybrid fitness for binding parS DNA” value: at most 0.2 for the first, at most 0.2 for the second.

KMQT and PRSD cannot be ordered by “one-hybrid fitness for binding parS DNA” value: at most 0.2 for the first, at most 0.2 for the second.

VVDT and VRIR cannot be ordered by “one-hybrid fitness for binding parS DNA” value: at most 0.2 for the first, at most 0.2 for the second.

NRRL and TLTG cannot be ordered by “one-hybrid fitness for binding parS DNA” value: at most 0.2 for the first, at most 0.2 for the second.

VANE and KWPS cannot be ordered by “one-hybrid fitness for binding parS DNA” value: at most 0.2 for the first, at most 0.2 for the second.

DRGL and AHNR cannot be ordered by “one-hybrid fitness for binding parS DNA” value: at most 0.2 for the first, at most 0.2 for the second.

TYRM and PPCG cannot be ordered by “one-hybrid fitness for binding parS DNA” value: at most 0.2 for the first, at most 0.2 for the second.

VQYR and LDHR cannot be ordered by “one-hybrid fitness for binding parS DNA” value: at most 0.2 for the first, at most 0.2 for the second.

HPGV and VWMW cannot be ordered by “one-hybrid fitness for binding parS DNA” value: at most 0.2 for the first, at most 0.2 for the second.

ARPV and PTIC cannot be ordered by “one-hybrid fitness for binding parS DNA” value: at most 0.2 for the first, at most 0.2 for the second.

First: FYRS
Second: RAPS
The “one-hybrid fitness for binding parS DNA” value of the first is lower: at most 0.2 for the first, 0.673 for the second.

PHRP and WIQR cannot be ordered by “one-hybrid fitness for binding parS DNA” value: at most 0.2 for the first, at most 0.2 for the second.

ALYY and QSFT cannot be ordered by “one-hybrid fitness for binding parS DNA” value: at most 0.2 for the first, at most 0.2 for the second.

RQNL and PYYW cannot be ordered by “one-hybrid fitness for binding parS DNA” value: at most 0.2 for the first, at most 0.2 for the second.
